Publication PMC3688683, “The N-Terminal Domains of Vps3 and Vps8 Are Critical for Localization and Function of the CORVET Tethering Complex on Endosomes” (PLoS ONE, 2013)
No constants are given. Whether binding was seen depends on the method and setting. In cells and extracts the contact can be indirect. Some results given as binding are weak or reduced against the parent protein; the word gives no strength. Tags and fused reporters may be left off the sequences shown.

How the values were obtained:
Assay in all cases: co-IP; small-scale TAP purification: C-terminally TAP-tagged Vps8 or Vps3 (full-length or truncated) captured from yeast lysate (50 mM HEPES/KOH pH 7.4, 300 mM NaCl, 0.15% NP-40, 2 mM MgCl2, 1 mM DTT) on IgG beads, 1.5 h at 4°C; eluted with glycine pH 2.5 or TEV protease; Western blot with anti-Cbp, anti-HA, anti-Vps11; also with overproduced Vps8ΔN and from vps21Δ and vps21Δ ypt52Δ ypt53Δ ypt7Δ strains
[1] = target: T1, Vps3-TAP (full-length Vps3, C-terminal TAP tag) (yeast (genomic locus of BY4741/BY4733 strains)) (UniProt P23643)
T1 sequence: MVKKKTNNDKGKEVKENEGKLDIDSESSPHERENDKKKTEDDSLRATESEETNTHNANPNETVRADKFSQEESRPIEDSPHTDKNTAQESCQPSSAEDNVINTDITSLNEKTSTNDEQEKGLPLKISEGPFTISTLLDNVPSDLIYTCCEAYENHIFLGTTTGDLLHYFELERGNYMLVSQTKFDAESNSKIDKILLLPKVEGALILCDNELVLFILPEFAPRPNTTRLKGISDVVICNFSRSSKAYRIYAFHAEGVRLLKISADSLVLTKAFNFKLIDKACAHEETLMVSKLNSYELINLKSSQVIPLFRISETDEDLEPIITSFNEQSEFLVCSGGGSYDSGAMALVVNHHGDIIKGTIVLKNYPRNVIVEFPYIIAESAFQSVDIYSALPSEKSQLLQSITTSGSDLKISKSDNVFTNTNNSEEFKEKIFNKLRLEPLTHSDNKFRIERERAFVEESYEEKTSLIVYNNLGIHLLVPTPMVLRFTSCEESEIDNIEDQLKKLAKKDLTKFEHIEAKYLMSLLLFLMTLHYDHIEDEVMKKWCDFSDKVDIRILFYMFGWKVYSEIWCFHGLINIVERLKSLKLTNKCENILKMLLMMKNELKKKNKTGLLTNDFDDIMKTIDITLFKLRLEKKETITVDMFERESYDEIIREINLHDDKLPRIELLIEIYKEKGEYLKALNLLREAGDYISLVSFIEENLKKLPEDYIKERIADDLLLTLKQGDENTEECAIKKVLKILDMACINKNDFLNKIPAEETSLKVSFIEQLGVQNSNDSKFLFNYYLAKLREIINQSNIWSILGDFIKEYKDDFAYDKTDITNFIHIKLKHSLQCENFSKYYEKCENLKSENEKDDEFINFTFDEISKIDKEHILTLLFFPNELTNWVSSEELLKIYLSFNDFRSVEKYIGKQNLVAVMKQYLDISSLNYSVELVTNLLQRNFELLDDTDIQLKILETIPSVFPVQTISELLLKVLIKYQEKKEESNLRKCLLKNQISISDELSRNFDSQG

[2] = target: T2, Vps3ΔC-TAP (N-terminal domain of Vps3, up to residue 426, C-terminal TAP tag) (yeast (genomic locus of BY4733 strains)) (UniProt P23643)
T2 sequence: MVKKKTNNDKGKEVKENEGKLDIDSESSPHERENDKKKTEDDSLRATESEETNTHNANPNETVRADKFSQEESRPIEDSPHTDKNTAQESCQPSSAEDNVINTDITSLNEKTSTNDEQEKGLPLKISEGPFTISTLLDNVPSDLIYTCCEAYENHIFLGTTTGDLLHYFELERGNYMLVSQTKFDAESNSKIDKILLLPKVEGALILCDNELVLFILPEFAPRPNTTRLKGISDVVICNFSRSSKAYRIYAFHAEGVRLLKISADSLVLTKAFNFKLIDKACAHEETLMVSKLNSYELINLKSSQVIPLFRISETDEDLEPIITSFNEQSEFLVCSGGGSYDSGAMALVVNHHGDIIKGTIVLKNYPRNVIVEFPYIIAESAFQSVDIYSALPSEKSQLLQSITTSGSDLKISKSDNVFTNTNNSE

[3] = target: T3, Vps3ΔN-TAP (C-terminal domain of Vps3, from residue 427, C-terminal TAP tag) (yeast (genomic locus of BY4741/BY4733 strains)) (UniProt P23643)
T3 sequence: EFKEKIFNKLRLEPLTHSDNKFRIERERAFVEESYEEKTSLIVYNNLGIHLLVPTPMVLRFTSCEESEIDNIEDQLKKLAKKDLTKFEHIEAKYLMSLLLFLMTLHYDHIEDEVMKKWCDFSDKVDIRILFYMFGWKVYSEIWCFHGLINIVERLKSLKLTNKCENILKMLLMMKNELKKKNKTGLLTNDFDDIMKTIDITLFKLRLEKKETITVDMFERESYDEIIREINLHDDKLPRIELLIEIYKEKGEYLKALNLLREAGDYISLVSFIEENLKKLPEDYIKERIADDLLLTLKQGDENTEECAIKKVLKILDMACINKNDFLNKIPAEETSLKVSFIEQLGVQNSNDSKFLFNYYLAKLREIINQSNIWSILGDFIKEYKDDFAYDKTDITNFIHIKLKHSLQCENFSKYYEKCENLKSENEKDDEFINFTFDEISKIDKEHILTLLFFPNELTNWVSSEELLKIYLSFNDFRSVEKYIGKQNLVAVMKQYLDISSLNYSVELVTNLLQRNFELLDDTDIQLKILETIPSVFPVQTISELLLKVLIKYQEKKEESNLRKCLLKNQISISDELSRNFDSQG

B1: Vps8-3HA (full-length Vps8, C-terminal 3xHA tag) (protein, UniProt P39702 1-1274)
chain: MEQNGLDHDSRSSIDTTINDTQKTFLEFRSYTQLSEKLASSSSYTAPPLNEDGPKGVASAVSQGSESVVSWTTLTHVYSILGAYGGPTCLYPTATYFLMGTSKGCVLIFNYNEHLQTILVPTLSEDPSIHSIRSPVKSIVICSDGTHVAASYETGNICIWNLNVGYRVKPTSEPTNGMTPTPALPAVLHIDDHVNKEITGLDFFGARHTALIVSDRTGKVSLYNGYRRGFWQLVYNSKKILDVNSSKEKLIRSKLSPLISREKISTNLLSVLTTTHFALILLSPHVSLMFQETVEPSVQNSLVVNSSISWTQNCSRVAYSVNNKISVISISSSDFNVQSASHSPEFAESILSIQWIDQLLLGVLTISHQFLVLHPQHDFKILLRLDFLIHDLMIPPNKYFVISRRSFYLLTNYSFKIGKFVSWSDITLRHILKGDYLGALEFIESLLQPYCPLANLLKLDNNTEERTKQLMEPFYNLSLAALRFLIKKDNADYNRVYQLLMVVVRVLQQSSKKLDSIPSLDVFLEQGLEFFELKDNAVYFEVVANIVAQGSVTSISPVLFRSIIDYYAKEENLKVIEDLIIMLNPTTLDVDLAVKLCQKYNLFDLLIYIWNKIFDDYQTPVVDLIYRISNQSEKCVIFNGPQVPPETTIFDYVTYILTGRQYPQNLSISPSDKCSKIQRELSAFIFSGFSIKWPSNSNHKLYICENPEEEPAFPYFHLLLKSNPSRFLAMLNEVFEASLFNDDNDMVASVGEAELVSRQYVIDLLLDAMKDTGNSDNIRVLVAIFIATSISKYPQFIKVSNQALDCVVNTICSSRVQGIYEISQIALESLLPYYHSRTTENFILELKEKNFNKVLFHIYKSENKYASALSLILETKDIEKEYNTDIVSITDYILKKCPPGSLECGKVTEVIETNFDLLLSRIGIEKCVTIFSDFDYNLHQEILEVKNEETQQKYLDKLFSTPNINNKVDKRLRNLHIELNCKYKSKREMILWLNGTVLSNAESLQILDLLNQDSNFEAAAIIHERLESFNLAVRDLLSFIEQCLNEGKTNISTLLESLRRAFDDCNSAGTEKKSCWILLITFLITLYGKYPSHDERKDLCNKLLQEAFLGLVRSKSSSQKDSGGEFWEIMSSVLEHQDVILMKVQDLKQLLLNVFNTYKLERSLSELIQKIIEDSSQDLVQQYRKFLSEGWSIHTDDCEICGKKIWGAGLDPLLFLAWENVQRHQDMISVDLKTPLVIFKCHHGFHQTCLENLAQKPDEYSCLICQTESNPKIV
B1 was tested, and the binding [1] was “binds”, the binding [2] was “no binding” and the binding [3] was “binds”.
